# Data: the supplement of paper PMC8728848
# The list shows a part of the results.
# B1: Dectin-1 CTLD (Mus musculus), Q6QLQ4 (protein)
# chain: MKYHSHIENLDEDGYTQLDFSTQDIHKRPRGSEKGSRAPSSPWRPIAVGLGILCFVVVVVAAVLGALAFWRHNSGRNPEEKDNFLSRNKENHKPTESSLDEKVAPSKASQTTGGFSQSCLPNWIMHGKSCYLFSFSGNSWYGSKRHCSQLGAHLLKIDNSKEFEFIESQTSSHRINAFWIGLSRNQSEGPWFWEDGSAFFPNSFQVRNTVPQESLLHNCVWIHGSEVYNQICNTSSYSICEKEL
# Experiments:
# Assay in all cases: glycan array binding signal (z-score within array); higher = stronger binding
# Details in all cases: glycan notation: IUPAC condensed, linker removed
# [1] = molecular target: Gal(b1-3)[Neu5Ac(a2-6)]GalNAc
# Method in brief: (§1)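 Arrays were curated from the Consortium for Functional Glycomics database, 3228 in total, and kept only where the protein sequence was available. Binding is expressed as a within-array Z-score. This score was averaged across arrays of the same protein sequence at different concentrations or buffers and across linkers, and negative values can be read as non-binding.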
# [2] = molecular target: Gal(b1-3)[Neu5Ac(a2-6)]GlcNAc
# Method in brief: as §1
# [3] = molecular target: Gal(b1-3)[Neu5Ac(a2-6)]GlcNAc(a1-4)Gal(b1-4)Glc
# Method in brief: as §1
# [4] = molecular target: Gal(b1-3)[Neu5Ac(b2-6)]GlcNAc
# Method in brief: as §1
# [5] = molecular target: Gal(b1-4)GalNAc(a1-3)[Fuc(a1-2)]Gal(b1-4)GlcNAc
# Method in brief: as §1
# [6] = molecular target: Gal(b1-4)GalNAc(b1-3)[Fuc(a1-2)]Gal(b1-4)GlcNAc
# Method in brief: as §1
# Gal(b1-4)Glc = molecular target: Gal(b1-4)Glc
# Method in brief: as §1
# Gal(b1-4)Glc6S = molecular target: Gal(b1-4)Glc6S
# Method in brief: as §1
# Gal(b1-4)GlcNAc = molecular target: Gal(b1-4)GlcNAc
# Method in brief: as §1
# [7] = molecular target: Gal(b1-4)GlcNAc(b1-2)Man(a1-3)[Gal(b1-4)GlcNAc(b1-2)Man(a1-6)]Man(b1-4)GlcNAc(b1-4)GlcNAc
# Method in brief: as §1
# [8] = molecular target: Gal(b1-4)GlcNAc(b1-3)Gal(b1-4)Glc
# Method in brief: as §1
# [9] = molecular target: Gal(b1-4)GlcNAc(b1-3)Gal(b1-4)GlcNAc
# Method in brief: as §1
# [10] = molecular target: Gal(b1-4)GlcNAc(b1-3)Gal(b1-4)GlcNAc(b1-3)Gal(b1-4)GlcNAc
# Method in brief: as §1
# [11] = molecular target: Gal(b1-4)GlcNAc(b1-3)Gal(b1-4)[Fuc(a1-3)]GlcNAc(b1-3)Gal(b1-4)[Fuc(a1-3)]GlcNAc
# Method in brief: as §1
# [12] = molecular target: Gal(b1-4)GlcNAc(b1-3)GalNAc
# Method in brief: as §1
# [13] = molecular target: Gal(b1-4)GlcNAc(b1-3)[Gal(b1-4)GlcNAc(b1-6)]GalNAc
# Method in brief: as §1
# [14] = molecular target: Gal(b1-4)GlcNAc(b1-6)GalNAc
# Method in brief: as §1
# [15] = molecular target: Gal(b1-4)GlcNAc(b1-6)[Gal(b1-3)]GalNAc
# Method in brief: as §1
# [16] = molecular target: Gal(b1-4)GlcNAc(b1-6)[Gal(b1-3)]GlcNAc
# Method in brief: as §1
# Gal3S(b1-3)GalNAc = molecular target: Gal3S(b1-3)GalNAc
# Method in brief: as §1
# Gal3S(b1-3)GlcNAc = molecular target: Gal3S(b1-3)GlcNAc
# Method in brief: as §1
# [17] = molecular target: Gal3S(b1-3)[Fuc(a1-4)]GlcNAc
# Method in brief: as §1
# Gal3S(b1-4)Glc = molecular target: Gal3S(b1-4)Glc
# Method in brief: as §1
# Gal3S(b1-4)Glc6S = molecular target: Gal3S(b1-4)Glc6S
# Method in brief: as §1
# Gal3S(b1-4)GlcNAc = molecular target: Gal3S(b1-4)GlcNAc
# Method in brief: as §1
# Gal3S(b1-4)GlcNAc6S = molecular target: Gal3S(b1-4)GlcNAc6S
# Method in brief: as §1
# Gal3S6S(b1-4)GlcNAc = molecular target: Gal3S6S(b1-4)GlcNAc
# Method in brief: as §1
# Gal3S6S(b1-4)GlcNAc6S = molecular target: Gal3S6S(b1-4)GlcNAc6S
# Method in brief: as §1
# Gal4S(b1-4)GlcNAc = molecular target: Gal4S(b1-4)GlcNAc
# Method in brief: as §1
# Gal4S6S(b1-4)GlcNAc = molecular target: Gal4S6S(b1-4)GlcNAc
# Method in brief: as §1
# Gal6S(b1-4)Glc = molecular target: Gal6S(b1-4)Glc
# Method in brief: as §1
# Gal6S(b1-4)Glc6S = molecular target: Gal6S(b1-4)Glc6S
# Method in brief: as §1
# Gal6S(b1-4)GlcNAc = molecular target: Gal6S(b1-4)GlcNAc
# Method in brief: as §1
# GalNAc(a1-3)Gal = molecular target: GalNAc(a1-3)Gal
# Method in brief: as §1
# GalNAc(a1-3)GalNAc = molecular target: GalNAc(a1-3)GalNAc
# Method in brief: as §1
# [18] = molecular target: GalNAc(b1-3)Gal(a1-4)Gal(b1-4)GlcNAc
# Method in brief: as §1
# GalNAc(b1-4)GlcNAc = molecular target: GalNAc(b1-4)GlcNAc
# Method in brief: as §1
# Glc(a1-4)Glc = molecular target: Glc(a1-4)Glc
# Method in brief: as §1
# Glc(a1-6)Glc(a1-6)Glc = molecular target: Glc(a1-6)Glc(a1-6)Glc
# Method in brief: as §1
# Glc(b1-4)Glc = molecular target: Glc(b1-4)Glc
# Method in brief: as §1
# Glc(b1-6)Glc = molecular target: Glc(b1-6)Glc
# Method in brief: as §1
# GlcA(b1-3)Gal = molecular target: GlcA(b1-3)Gal
# Method in brief: as §1
# GlcA(b1-6)Gal = molecular target: GlcA(b1-6)Gal
# Method in brief: as §1
# [19] = molecular target: GlcNAc(a1-3)Gal(b1-4)GlcNAc
# Method in brief: as §1
# [20] = molecular target: GlcNAc(a1-6)Gal(b1-4)GlcNAc
# Method in brief: as §1
# [21] = molecular target: GlcNAc(b1-2)Gal(b1-3)GlcNAc
# Method in brief: as §1
# [22] = molecular target: GlcNAc(b1-2)Man(a1-3)[GlcNAc(b1-2)Man(a1-6)]Man(b1-4)GlcNAc(b1-4)GlcNAc
# Method in brief: as §1
# GlcNAc(b1-3)Gal = molecular target: GlcNAc(b1-3)Gal
# Method in brief: as §1
# [23] = molecular target: GlcNAc(b1-3)Gal(b1-3)GalNAc
# Method in brief: as §1
# GlcNAc(b1-3)Gal(b1-4)Glc = molecular target: GlcNAc(b1-3)Gal(b1-4)Glc
# Method in brief: as §1
# [24] = molecular target: GlcNAc(b1-3)Gal(b1-4)GlcNAc
# Method in brief: as §1
# [25] = molecular target: GlcNAc(b1-3)Gal(b1-4)GlcNAc(b1-3)Gal(b1-4)GlcNAc
# Method in brief: as §1
# GlcNAc(b1-3)GalNAc = molecular target: GlcNAc(b1-3)GalNAc
# Method in brief: as §1
# [26] = molecular target: GlcNAc(b1-3)[GlcNAc(b1-4)][GlcNAc(b1-6)]GlcNAc
# Method in brief: as §1
# [27] = molecular target: GlcNAc(b1-3)[GlcNAc(b1-6)]Gal(b1-4)GlcNAc
# Method in brief: as §1
# [28] = molecular target: GlcNAc(b1-3)[GlcNAc(b1-6)]GlcNAc
# Method in brief: as §1
# [29] = molecular target: GlcNAc(b1-4)Gal(b1-4)GlcNAc
# Method in brief: as §1
# [30] = molecular target: GlcNAc(b1-4)GlcNAc(b1-4)GlcNAc
# Method in brief: as §1
# [31] = molecular target: GlcNAc(b1-4)GlcNAc(b1-4)GlcNAc(b1-4)GlcNAc(b1-4)GlcNAc
# Method in brief: as §1
# [32] = molecular target: GlcNAc(b1-4)GlcNAc(b1-4)GlcNAc(b1-4)GlcNAc(b1-4)GlcNAc(b1-4)GlcNAc
# Method in brief: as §1
binder,measurement,setting,value
B1,glycan array binding signal (z-score),[1],-0.139
same,glycan array binding signal (z-score),[2],-0.392
same,glycan array binding signal (z-score),[3],0.033
same,glycan array binding signal (z-score),[4],-0.205
same,glycan array binding signal (z-score),[5],-0.12
same,glycan array binding signal (z-score),[6],-0.348
same,glycan array binding signal (z-score),Gal(b1-4)Glc,1.14
same,glycan array binding signal (z-score),Gal(b1-4)Glc6S,-0.129
same,glycan array binding signal (z-score),Gal(b1-4)GlcNAc,-0.159
same,glycan array binding signal (z-score),[7],-0.154
same,glycan array binding signal (z-score),[8],0.5
same,glycan array binding signal (z-score),[9],-0.38
same,glycan array binding signal (z-score),[10],-0.185
same,glycan array binding signal (z-score),[11],-0.445
same,glycan array binding signal (z-score),[12],-0.068
same,glycan array binding signal (z-score),[13],-0.217
same,glycan array binding signal (z-score),[14],-0.151
same,glycan array binding signal (z-score),[15],-0.11
same,glycan array binding signal (z-score),[16],-0.276
same,glycan array binding signal (z-score),Gal3S(b1-3)GalNAc,-0.372
same,glycan array binding signal (z-score),Gal3S(b1-3)GlcNAc,-0.491
same,glycan array binding signal (z-score),[17],-0.474
same,glycan array binding signal (z-score),Gal3S(b1-4)Glc,-0.39
same,glycan array binding signal (z-score),Gal3S(b1-4)Glc6S,0.128
same,glycan array binding signal (z-score),Gal3S(b1-4)GlcNAc,0.333
same,glycan array binding signal (z-score),Gal3S(b1-4)GlcNAc6S,-0.385
same,glycan array binding signal (z-score),Gal3S6S(b1-4)GlcNAc,-0.48
same,glycan array binding signal (z-score),Gal3S6S(b1-4)GlcNAc6S,-0.499
same,glycan array binding signal (z-score),Gal4S(b1-4)GlcNAc,-0.352
same,glycan array binding signal (z-score),Gal4S6S(b1-4)GlcNAc,-0.021
same,glycan array binding signal (z-score),Gal6S(b1-4)Glc,-0.235
same,glycan array binding signal (z-score),Gal6S(b1-4)Glc6S,-0.377
same,glycan array binding signal (z-score),Gal6S(b1-4)GlcNAc,-0.262
same,glycan array binding signal (z-score),GalNAc(a1-3)Gal,-0.457
same,glycan array binding signal (z-score),GalNAc(a1-3)GalNAc,-0.185
same,glycan array binding signal (z-score),[18],-0.464
same,glycan array binding signal (z-score),GalNAc(b1-4)GlcNAc,-0.197
same,glycan array binding signal (z-score),Glc(a1-4)Glc,0.964
same,glycan array binding signal (z-score),Glc(a1-6)Glc(a1-6)Glc,0.001
same,glycan array binding signal (z-score),Glc(b1-4)Glc,-0.278
same,glycan array binding signal (z-score),Glc(b1-6)Glc,0.549
same,glycan array binding signal (z-score),GlcA(b1-3)Gal,4.11
same,glycan array binding signal (z-score),GlcA(b1-6)Gal,-0.263
same,glycan array binding signal (z-score),[19],-0.269
same,glycan array binding signal (z-score),[20],-0.24
same,glycan array binding signal (z-score),[21],-0.218
same,glycan array binding signal (z-score),[22],-0.34
same,glycan array binding signal (z-score),GlcNAc(b1-3)Gal,-0.245
same,glycan array binding signal (z-score),[23],-0.405
same,glycan array binding signal (z-score),GlcNAc(b1-3)Gal(b1-4)Glc,-0.03
same,glycan array binding signal (z-score),[24],0.088
same,glycan array binding signal (z-score),[25],-0.18
same,glycan array binding signal (z-score),GlcNAc(b1-3)GalNAc,0.059
same,glycan array binding signal (z-score),[26],-0.628
same,glycan array binding signal (z-score),[27],0.193
same,glycan array binding signal (z-score),[28],-0.044
same,glycan array binding signal (z-score),[29],-0.306
same,glycan array binding signal (z-score),[30],-0.25
same,glycan array binding signal (z-score),[31],0.938
same,glycan array binding signal (z-score),[32],-0.182
